Structures are written as SMILES. Screen size: about 310,000 compounds; about 14,000 (4.5%) showed an effect of 50% or more. Effects have a minus sign here. The list shows a part of the results.
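Also: peak tail current of the secondary pulse compared with the same well before compound.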

The target of this test is human ether-à-go-go-related gene (hERG) potassium channel (human, UniProt Q12809). Nature of the test: primary screen, population patch clamp on CHO cells stably expressing hERG.
Chain of human ether-à-go-go-related gene (hERG) potassium channel (Q12809 whole entry, looked up): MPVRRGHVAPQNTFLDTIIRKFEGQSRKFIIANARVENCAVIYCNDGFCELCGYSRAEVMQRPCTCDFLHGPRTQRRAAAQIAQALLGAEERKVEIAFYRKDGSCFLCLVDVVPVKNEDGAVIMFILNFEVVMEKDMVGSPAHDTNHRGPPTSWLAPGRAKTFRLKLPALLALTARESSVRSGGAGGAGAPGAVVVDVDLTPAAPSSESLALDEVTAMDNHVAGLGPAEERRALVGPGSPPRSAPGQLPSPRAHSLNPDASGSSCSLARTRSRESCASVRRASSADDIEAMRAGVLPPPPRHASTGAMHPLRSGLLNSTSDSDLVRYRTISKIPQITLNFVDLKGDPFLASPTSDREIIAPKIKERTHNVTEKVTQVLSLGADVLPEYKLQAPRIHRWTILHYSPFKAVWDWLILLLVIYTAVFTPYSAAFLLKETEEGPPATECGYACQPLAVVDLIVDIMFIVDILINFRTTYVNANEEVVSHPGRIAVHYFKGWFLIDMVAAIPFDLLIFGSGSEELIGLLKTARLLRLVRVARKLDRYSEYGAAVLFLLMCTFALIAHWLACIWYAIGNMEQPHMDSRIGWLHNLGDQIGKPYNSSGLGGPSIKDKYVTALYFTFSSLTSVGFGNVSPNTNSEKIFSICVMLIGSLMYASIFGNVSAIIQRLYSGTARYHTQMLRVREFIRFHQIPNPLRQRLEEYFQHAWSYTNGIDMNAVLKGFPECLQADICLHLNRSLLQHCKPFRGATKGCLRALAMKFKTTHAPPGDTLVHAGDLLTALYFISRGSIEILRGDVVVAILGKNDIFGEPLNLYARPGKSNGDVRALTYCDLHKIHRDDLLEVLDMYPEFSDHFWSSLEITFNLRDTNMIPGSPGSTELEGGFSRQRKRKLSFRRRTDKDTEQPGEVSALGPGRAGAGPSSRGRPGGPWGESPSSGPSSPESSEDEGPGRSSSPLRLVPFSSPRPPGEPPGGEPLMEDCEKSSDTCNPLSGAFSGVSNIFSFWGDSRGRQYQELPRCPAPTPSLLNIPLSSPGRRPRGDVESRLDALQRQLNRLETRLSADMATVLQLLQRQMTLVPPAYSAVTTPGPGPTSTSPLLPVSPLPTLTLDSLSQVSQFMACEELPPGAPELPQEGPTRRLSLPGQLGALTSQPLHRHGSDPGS
In the case of `O=C(CS(=O)(=O)c1cn(Cc2cccc(F)c2)c2ccccc12)N1CCOCC1`, the “hERG current change (%, negative = inhibition) at 10uM” value is recorded as -7.38%.
In the case of `COc1ccc(CNC(=O)CN2C(=O)CCSc3ccc(S(=O)(=O)N4CCCC4)cc32)cc1` it was -35.3%; in that of `Cc1c(NC(=O)C2CC(c3cccc(Br)c3)=NO2)c(=O)n(-c2ccccc2)n1C` (stereo not shown), -3.39%; in that of `CCCOc1ccc(C2C(C(=O)c3ccc(C)o3)=C(O)C(=O)N2Cc2ccco2)cc1OCC` (stereo not shown), 9.65%.
Turning to `Cn1cccc1-c1nc2ccc([N+](=O)[O-])cc2[nH]1`, the “hERG current change (%, negative = inhibition) at 10uM” value came to 4.4%.
The same measure for `CCOC(=O)C1=C(C)NC(=O)CC1c1cc2c(cc1[N+](=O)[O-])OCO2` (stereo not shown): 7.35%.
For `Cc1ccccc1NC(=S)NN1CCN(C)CC1`, the “hERG current change (%, negative = inhibition) at 10uM” value is on record as 4.23%.
For the compound `COc1ccc(Br)cc1/C=N/NC(=O)c1ccc2nc[nH]c2c1`, the “hERG current change (%, negative = inhibition) at 10uM” value came out at 22.3%.
In the case of `O=C(CCCN1C(=O)c2ccccc2C1=O)Nc1nncs1`, the “hERG current change (%, negative = inhibition) at 10uM” value is 14.8%.
With `CC1(C)N=C(N)N=C(N)N1c1ccc(C(=O)O)cc1.Cl`, the “hERG current change (%, negative = inhibition) at 10uM” value is -16.4%.
With `Cc1cccc(CN2C(=O)N/C(=C/c3cc(C)n(-c4cc(C)ccn4)c3C)C2=O)c1`, the “hERG current change (%, negative = inhibition) at 10uM” value stood at 5.62%.
For `c1ccc2c(-c3ccncc3)c[nH]c2c1`, the “hERG current change (%, negative = inhibition) at 10uM” value came out at 7.86%.
Regarding `COc1ccc(/C=C/c2nnc(NC(=O)C(C)C)s2)cc1`, the “hERG current change (%, negative = inhibition) at 10uM” value worked out at 9.76%.
The same measure for `COc1ccc(C2CC(c3ccc(Cl)cc3)=NN2C(C)=O)cc1` (stereo not shown): -23.5%; for `Clc1ccc(OCCN2CCCCC2)c(Cl)c1.O=C(O)C(=O)O`: -16.2%.
`Cc1nn(C)c(Cl)c1NC(=O)OCc1ccccc1`: the “hERG current change (%, negative = inhibition) at 10uM” value was -16.3%.
The same measure for `COc1ccc(N2C(=O)C(Cl)=C(Oc3cccc(OC)c3)C2=O)cc1`: 0.624%.
On to `COc1ccc(OC)c(N(CC(=O)NC2CC3CCC2C3)S(=O)(=O)c2ccccc2)c1` (stereo not shown), for which the “hERG current change (%, negative = inhibition) at 10uM” value is -59.7%.
In the case of `COc1ccc(NC(=O)c2cc(-c3cccc(OC)c3)on2)cc1` it was 12.4%.
The same measure for `COc1ccc(NC(=O)CCOc2ccc(C)cc2)cc1S(=O)(=O)N1CCOCC1`: -34.9%; for `COc1ccccc1CNC(=O)COC(=O)CNS(=O)(=O)c1ccc(C)cc1`: -38.7%; for `CC(=O)c1cccc(NC(=O)Nc2ccc3c(c2)N(C)C(=O)CS3)c1`: -6.23%.
Take `CN(CC(=O)NCc1ccc2c(c1)OCO2)CC(=O)Nc1ccc(F)c(F)c1F`: the “hERG current change (%, negative = inhibition) at 10uM” value was -13.2%.
In the case of `O=C(COC(=O)CNC(=O)c1ccc(Cl)cc1Cl)NC(=O)NC1CCCCC1`, the “hERG current change (%, negative = inhibition) at 10uM” value is on record as -14.2%.
Regarding `COCC(C)N1CCC(n2nccc2NC(=O)CCCc2ccccc2)CC1` (stereo not shown), the “hERG current change (%, negative = inhibition) at 10uM” value is given as -15.2%.
The same measure for `Cc1nn(C)c(C(=O)N/N=C/c2cccnc2)c1Cl`: 16.9%; for `COC(=O)C1=C(c2ccc(OC(F)(F)F)cc2)C[C@@H]2CC[C@H]1N2C(=O)NCC1CC1`: -58.6%; for `COc1ccc(-n2c(SC)nc(O)cc2=O)cc1`: -3.08%.
On to `O=C(c1cccc(Cl)c1)N(Cc1ccco1)C1CCS(=O)(=O)C1` (stereo not shown), for which the “hERG current change (%, negative = inhibition) at 10uM” value was 3.46%.
Turning to `COc1ccc(OCCC(=O)OCC(=O)NC(=O)NC(C)(C)C)cc1`, the “hERG current change (%, negative = inhibition) at 10uM” value is reported as -6.8%.
Take `O=C(CCCN=C1NS(=O)(=O)c2ccccc21)OCc1ccc(F)cc1`: the “hERG current change (%, negative = inhibition) at 10uM” value is reported as -14.2%.
Regarding `CN(CC(=O)Nc1ccc(Cl)c(C(F)(F)F)c1)C(=O)Cc1ccsc1`, the “hERG current change (%, negative = inhibition) at 10uM” value is listed as -18.9%.
On to `CC(C)(C)c1n[nH]c(=S)n(/N=C/c2cccs2)c1=O`, for which the “hERG current change (%, negative = inhibition) at 10uM” value turned out to be 7.18%.
In the case of `O=C(COC(=O)Cc1ccccc1F)Nc1ccc2c(c1)OCCO2` it was 20.5%; in that of `N#C/C(=C\c1ccc(Sc2nc3ccccc3[nH]2)o1)c1ccccc1`, -2.62%.
`Cc1c(Cl)cnc(NC(=O)CSc2n[nH]c(N)n2)c1Cl`: the “hERG current change (%, negative = inhibition) at 10uM” value is on record as 10.9%.
The same measure for `CN1CCc2nc3ccc(Cl)cc3c(-c3ccccc3Cl)c2C1.Cl`: -65.7%; for `COC(=O)c1cnc(SCc2ccc([N+](=O)[O-])cc2)n1C`: -32%; for `CCOC(=O)c1nnn(-c2nonc2N)c1-c1cccs1`: -12.8%.
Take `O=C1c2ccccc2C(=O)N1CCCCn1c(=O)oc2ccccc21`: the “hERG current change (%, negative = inhibition) at 10uM” value is listed as -13.9%.
The same measure for `Cc1nn2c(nc(N3CCOCC3)c3ccccc32)c1C=C(C#N)C#N`: -42.6%; for `Cc1ccc(OCCN(C)C(=O)C2CCC(=O)N(CCCN3CCOCC3)C2)cc1` (stereo not shown): 0.861%; for `O=C(Nc1nnc(-c2ccc(F)cc2)o1)c1ccco1`: 4.68%.

Values taken from article PMC4336329 (PLoS ONE, 2015).
